Results on 18 molecules are retold here after paper PMC8198181, “Evaluation of Substituted N-Phenylpiperazine Analogs as D3 vs. D2 Dopamine Receptor Subtype Selective Ligands” (Molecules, 2021).

The test concerns the target D2 dopamine receptor (Homo sapiens, UniProt P14416). The test can be described thus: biochemical.
Sequence of UniProt P14416 (P14416 whole entry): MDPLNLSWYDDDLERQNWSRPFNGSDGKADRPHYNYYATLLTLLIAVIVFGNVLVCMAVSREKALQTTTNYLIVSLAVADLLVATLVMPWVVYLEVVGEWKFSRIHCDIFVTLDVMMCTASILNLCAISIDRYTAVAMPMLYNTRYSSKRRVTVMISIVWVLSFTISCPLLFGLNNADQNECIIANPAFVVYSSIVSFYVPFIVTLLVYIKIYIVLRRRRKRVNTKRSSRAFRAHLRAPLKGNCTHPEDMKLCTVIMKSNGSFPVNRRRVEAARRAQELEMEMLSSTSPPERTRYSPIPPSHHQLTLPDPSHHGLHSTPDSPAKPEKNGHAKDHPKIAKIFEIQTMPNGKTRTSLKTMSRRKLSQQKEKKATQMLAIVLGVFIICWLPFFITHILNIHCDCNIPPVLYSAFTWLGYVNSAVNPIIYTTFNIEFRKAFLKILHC

As usually defined, the Ki is the dissociation constant of the complex between target and ligand, obtained from inhibition or displacement. Read a low Ki as a stronger hold on the target. As for `CCCCN1CCN(c2ccccc2F)CC1` [Compound 3a], the affinity, expressed as Ki, was 0.384 ± 0.0396 µM.
On to `CCCCN1CCN(c2cccc(F)c2)CC1` [Compound 3b], for which the affinity, expressed as Ki, was 2.52 ± 0.252 µM.
`CCCCN1CCN(c2ccc(F)cc2)CC1` [Compound 3c] showed a Ki of 3.09 ± 0.269 µM. This Ki and that of the molecule before are within 1.5-fold of each other.
For the molecule `CCCCN1CCN(c2cc(C#N)ccc2F)CC1` [Compound 3d], the Ki came out at 5.43 ± 1.06 µM.
Regarding `CCCCN1CCN(c2ccc(C(F)(F)F)cc2F)CC1` [Compound 3e], affinity was put at a Ki of 7.52 ± 0.466 µM.
The result for `CCCCN1CCN(c2ccc(F)cc2OCCF)CC1` [Compound 3f] reads 0.349 ± 0.0211 µM; that for `O=C(NCCCCN1CCN(c2ccccc2F)CC1)c1ccc(-c2ccsc2)cc1` [Compound 6a], 0.648 ± 0.1 µM; that for `O=C(NCCCCN1CCN(c2cccc(F)c2)CC1)c1ccc(-c2ccsc2)cc1` [Compound 6b], 2.33 ± 0.485 µM.
For the molecule `O=C(NCCCCN1CCN(c2ccc(F)cc2)CC1)c1ccc(-c2ccsc2)cc1` [Compound 6c], the Ki amounted to 7.2 ± 0.215 µM.
The molecule `N#Cc1ccc(F)c(N2CCN(CCCCNC(=O)c3ccc(-c4ccsc4)cc3)CC2)c1` [Compound 6d] showed a Ki of 4.5 ± 0.565 µM.
On to `O=C(NCCCCN1CCN(c2ccc(C(F)(F)F)cc2F)CC1)c1ccc(-c2ccsc2)cc1` [Compound 6e], for which the Ki is above 75 µM.
The molecule `O=C(NCCCCN1CCN(c2ccc(F)cc2OCCF)CC1)c1ccc(-c2ccsc2)cc1` [Compound 6f] yielded a Ki of 0.411 ± 0.0273 µM.
In the case of `O=C(NCCCCN1CCN(c2ccccc2F)CC1)c1ccc(-c2cscn2)cc1` [Compound 7a], the Ki was 0.478 ± 0.071 µM.
As for `O=C(NCCCCN1CCN(c2cccc(F)c2)CC1)c1ccc(-c2cscn2)cc1` [Compound 7b], the figure is 3.95 ± 0.146 µM; as for `O=C(NCCCCN1CCN(c2ccc(F)cc2)CC1)c1ccc(-c2cscn2)cc1` [Compound 7c], 4.01 ± 0.694 µM.
The result for `N#Cc1ccc(F)c(N2CCN(CCCCNC(=O)c3ccc(-c4cscn4)cc3)CC2)c1` [Compound 7d] reads 7.72 ± 1.5 µM; that for `O=C(NCCCCN1CCN(c2ccc(C(F)(F)F)cc2F)CC1)c1ccc(-c2cscn2)cc1` [Compound 7e], above 40 µM.
Regarding `O=C(NCCCCN1CCN(c2ccc(F)cc2OCCF)CC1)c1ccc(-c2cscn2)cc1` [Compound 7f], the Ki is 0.349 ± 0.0503 µM.
